Measured values reported in the supplement of paper PMC7826260.
The list shows a part of the results. Viral Rep nickase domains cut single-stranded DNA in vitro for 1 h at 37 °C with 3 µM enzyme; only the middle of the 90-letter strands is printed. Numbers give uncut DNA relative to the enzyme-free pool, as log2; more negative means more cut, near 0 not cut, and no call is made. Because reads are shares of a total, they shift together, so uncut sequences can rise above 0 when many others are cut.

Key:
Assay in all cases: uncleaved DNA left, log2 of reads against the no-enzyme library (log2 ratio); higher = less cleavage (more negative = more Rep cleavage of the k-mer); sequences stand for … in CTCGTCCG…ACCGGAGA
[1] = system: T1, Rep nickase domain of Muscovy duck circovirus
T1 sequence (residues 1-111 of Rep, tag left off): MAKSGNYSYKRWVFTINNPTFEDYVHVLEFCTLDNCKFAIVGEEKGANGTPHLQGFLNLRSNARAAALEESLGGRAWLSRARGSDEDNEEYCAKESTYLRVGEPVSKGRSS
Experimental: (§1)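 A pool of 90-nt single-stranded DNAs with seven random bases just before the constant AC of the nick site (name = the seven bases) was cut by 3 µM recombinant His6-SUMO-tagged Rep nickase domain (300 nM DNA, 50 mM HEPES pH 8.0, 50 mM NaCl, 1 mM MnCl2, 1 h, 37 °C, three replicates). Uncut DNA was amplified and sequenced.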

[2] = system: T2, Rep nickase domain of banana bunchy top virus
T2 sequence (residues 1-94 of Rep, tag left off): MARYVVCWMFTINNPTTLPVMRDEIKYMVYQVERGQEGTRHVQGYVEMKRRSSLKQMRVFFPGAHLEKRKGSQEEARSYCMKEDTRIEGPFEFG
Experimental: as §1

[3] = system: T3, Rep nickase domain of cabbage leaf curl virus
T3 sequence (residues 1-116 of Rep, tag left off): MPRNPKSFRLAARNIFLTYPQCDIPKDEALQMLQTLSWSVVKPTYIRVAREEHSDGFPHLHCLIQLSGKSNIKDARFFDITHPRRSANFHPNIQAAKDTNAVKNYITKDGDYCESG
Experimental: as §1

[4] = system: T4, Rep nickase domain of chickpea chlorotic dwarf virus
T4 sequence (residues 1-124 of Rep, tag left off): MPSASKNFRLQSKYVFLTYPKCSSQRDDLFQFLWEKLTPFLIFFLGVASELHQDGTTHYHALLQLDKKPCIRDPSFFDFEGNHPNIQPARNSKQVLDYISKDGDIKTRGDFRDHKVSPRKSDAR
Experimental: as §1

[5] = system: T5, Rep nickase domain of faba bean necrotic yellows virus
T5 sequence (residues 1-98 of Rep, tag left off): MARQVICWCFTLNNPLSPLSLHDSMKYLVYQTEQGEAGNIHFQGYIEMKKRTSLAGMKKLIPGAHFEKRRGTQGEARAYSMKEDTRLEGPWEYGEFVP
Experimental: as §1

[6] = system: T6, Rep nickase domain of maize striate mosaic virus
T6 sequence (residues 1-117 of Rep, tag left off): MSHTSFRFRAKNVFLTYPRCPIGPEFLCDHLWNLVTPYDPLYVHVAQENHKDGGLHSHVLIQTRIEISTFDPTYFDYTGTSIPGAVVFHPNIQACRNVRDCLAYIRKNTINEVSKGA
Experimental: as §1

[7] = system: T7, Rep nickase domain of porcine circovirus 2
T7 sequence (residues 2-116 of Rep, tag left off): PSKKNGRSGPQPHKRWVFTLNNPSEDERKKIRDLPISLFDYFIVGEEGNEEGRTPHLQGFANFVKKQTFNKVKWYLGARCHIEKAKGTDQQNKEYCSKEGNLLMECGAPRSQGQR
Experimental: as §1

[8] = system: T8, Rep nickase domain of tomato yellow leaf curl virus
T8 sequence (residues 1-136 of Rep, tag left off): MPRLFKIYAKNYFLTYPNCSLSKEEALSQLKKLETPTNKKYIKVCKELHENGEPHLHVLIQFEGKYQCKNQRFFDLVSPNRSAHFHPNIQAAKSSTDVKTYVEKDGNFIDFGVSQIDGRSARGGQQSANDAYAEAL
Experimental: as §1

[9] = system: T9, Rep nickase domain of wheat dwarf virus
T9 sequence (residues 1-137 of Rep, tag left off): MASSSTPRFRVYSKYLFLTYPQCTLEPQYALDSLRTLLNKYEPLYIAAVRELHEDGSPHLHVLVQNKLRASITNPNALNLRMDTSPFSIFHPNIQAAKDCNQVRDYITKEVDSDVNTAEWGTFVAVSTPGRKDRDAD
Experimental: as §1

Sequence	uncleaved DNA left (log2) [1]	uncleaved DNA left (log2) [2]	uncleaved DNA left (log2) [3]	uncleaved DNA left (log2) [4]	uncleaved DNA left (log2) [5]	uncleaved DNA left (log2) [6]	uncleaved DNA left (log2) [7]	uncleaved DNA left (log2) [8]	uncleaved DNA left (log2) [9]
GCCAAAG	0.0523	0.0853	-0.47	-0.241	0.116	-0.956	0.257	0.126	-0.0921
AGACGTT	0.107	0.0248	0.43	-0.51	0.029	1.48	-0.00608	-0.0911	0.0512
TCTTACC	-3.18	-0.292	-1.3	-2.66	-0.971	-0.513	-3.04	0.0667	-1.66
CCTAGTC	-0.0447	-0.0296	-0.0367	-0.185	-0.00626	-0.869	0.0359	-0.00389	-0.0776
GATGTTC	-0.00801	-0.026	0.234	0.161	-0.00732	0.967	0.0397	0.128	0.0266
CTAATGC	0.059	0.103	-0.413	-0.482	0.131	-1.15	0.149	0.151	-0.0818
TATAACT	-0.588	-1.05	-1.2	-3.39	0.0182	-0.828	-2.92	0.00902	-0.092
GGCGTTC	0.133	0.0758	0.577	1.18	0.0232	1.6	0.187	0.0341	0.17
ACTCACA	-0.139	-0.0223	-0.198	-1.3	-0.0866	-0.737	-0.122	-0.0911	0.0629
TGTCCAT	0.0257	0.0904	0.254	0.232	0.00829	0.625	-0.049	0.118	0.0627
CCCCACC	-0.154	-0.099	-0.0713	-0.665	-0.0504	-0.676	-0.258	-0.284	-0.171
AGGTCGA	0.00101	0.0449	-0.266	-0.456	0.0757	-0.624	0.000673	0.0411	0.0326
CGAGGCA	-0.000995	0.0825	0.0203	0.273	0.0278	-0.0896	-0.298	0.0466	0.0433
CGAGGAT	0.0518	-0.0194	0.15	1.66	-0.0983	1.88	0.282	-0.134	0.0638
CGTACAA	-0.000157	0.0421	0.0551	-0.148	-0.0482	-0.0791	-0.0804	-0.0166	0.0634
TTTCATA	-0.0301	-0.00186	0.049	-0.669	0.0103	0.0771	-0.154	-0.0308	-0.0286
AGACATC	0.0723	0.0682	0.758	1.77	0.0704	1.82	0.264	-0.00932	0.181
CTAATTT	0.0475	-0.0693	0.225	-2.07	0.0393	-0.549	-0.369	0.099	0.048
AACTAAA	-0.0708	0.00665	-0.0707	-0.881	0.0703	-0.448	-1.42	-0.02	0.0142
TGACTAG	-0.0619	-0.0475	-0.168	0.21	-0.0119	-0.1	0.14	0.0336	-0.0656

Sequence	uncleaved DNA left (log2) [1]	uncleaved DNA left (log2) [2]	uncleaved DNA left (log2) [3]	uncleaved DNA left (log2) [4]	uncleaved DNA left (log2) [5]	uncleaved DNA left (log2) [6]	uncleaved DNA left (log2) [7]	uncleaved DNA left (log2) [8]	uncleaved DNA left (log2) [9]
GGCGCCG	-0.0075	0.0503	-0.095	-0.0143	0.0962	-0.0083	0.116	-0.00882	0.0488
CATCGAG	0.0107	0.0306	-0.237	-0.0649	-0.0629	-0.966	0.0191	-0.0188	-0.0633
TTACGGG	-0.108	-0.19	0.0475	-0.263	-0.0924	-0.0759	-0.0281	-0.209	-0.195
GAGCTAT	0.00768	-0.0906	0.17	0.451	-0.0956	1.08	-1.88	0.041	0.0709
CGGTCGG	0.0602	0.216	0.353	0.968	0.00544	1.21	0.241	0.109	0.0401
CAAGTGA	0.00126	-0.112	-0.297	-0.396	0.0249	-0.954	0.0707	-0.0763	-0.0228
AGTTGGC	0.0648	0.0163	-0.22	-0.225	0.0337	-0.92	0.142	-0.0543	-0.0214
CCTGGGC	0.00757	-1.58e-05	0.0739	0.109	0.102	-0.32	0.0977	-0.0669	-0.00763
ATGAAAC	0.0632	0.097	-0.0809	-0.271	0.0366	-0.663	0.151	0.0221	0.0637
GTTGGTA	0.0176	0.0824	0.293	0.857	0.0817	1.74	0.12	0.111	0.058
GGTACCG	0.0464	0.0273	-0.22	-0.297	-0.0114	-0.37	0.0274	-0.0313	-1.17e-06
TTAAAGC	0.0211	-0.0964	-0.199	-0.473	-0.0297	-1.06	0.155	-0.00641	-0.133
ACCGTCG	0.0978	0.0962	-0.416	0.921	0.184	0.226	0.113	0.202	-0.00281
AGGTGAT	0.0331	0.084	0.328	1.67	0.0613	1.97	-0.0218	-0.0661	0.157
GTGGATT	-0.0101	0.00817	0.665	1.51	0.0325	2.08	0.131	0.1	-0.0577
CGTAACG	0.00444	-0.0117	-0.729	-0.487	-0.0797	-1.18	0.192	-0.0302	-0.018
ATGGCCA	-0.0574	0.11	-0.00599	-0.214	-0.000284	-0.048	-0.0588	0.17	0.0764
CGAGGCC	0.157	0.135	0.209	0.428	-0.118	0.00226	0.0356	0.0555	-0.0444
CTTTCGC	-0.00716	-0.134	-0.695	-0.865	-0.000339	-1.26	0.0611	-0.121	-0.202
TGGGTGT	0.144	0.00853	0.56	1.08	0.0166	1.56	0.103	-0.0382	0.00574

Sequence	uncleaved DNA left (log2) [1]	uncleaved DNA left (log2) [2]	uncleaved DNA left (log2) [3]	uncleaved DNA left (log2) [4]	uncleaved DNA left (log2) [5]	uncleaved DNA left (log2) [6]	uncleaved DNA left (log2) [7]	uncleaved DNA left (log2) [8]	uncleaved DNA left (log2) [9]
AAAAGAG	0.0263	0.0597	-0.689	-0.479	0.139	-1.03	0.196	0.075	0.0297
GATATCC	-0.0866	0.0602	0.245	0.646	-0.00926	0.707	0.0913	0.0912	0.0372
TTACGCT	0.0189	-0.084	-1.04	-2.82	-0.0872	-1.36	-0.209	0.0576	-0.401
GAGTAGC	0.0919	-0.0486	0.00504	0.152	-0.0499	-0.507	-0.446	0.037	0.0306
GGTTCTG	-0.0752	-0.0301	0.0445	0.582	-0.118	1.11	-0.0128	0.0139	0.0997
AACCGAC	0.158	-0.013	0.0417	0.239	0.126	-0.484	0.0263	0.0626	0.101
TCCGCAA	-0.0694	-0.092	-0.159	-0.543	-0.0937	-0.68	-0.0655	-0.0954	-0.166
CCAGTTG	-0.0437	-0.0703	-0.0644	0.221	-0.0529	-0.291	0.0304	-0.183	-0.0884
CCTGATA	0.00392	-0.235	-0.374	-1.18	-0.0706	-0.467	-0.0571	-0.134	-0.0716
CAGTATT	-3.94	-3.77	-3.58	-3.14	-4.62	-1.78	-4.38	-0.169	-2.32
GGAAACA	-0.0269	-0.0165	0.728	1.54	0.0231	1.98	0.115	0.00951	0.0266
CAAGATA	-0.123	-0.162	-0.233	-1.77	0.133	-0.112	0.00952	-0.153	-0.132
GACGTCC	-0.119	-0.00933	0.0621	0.407	-0.0581	0.427	-0.061	-0.0422	-0.00165
TCCAACT	-0.143	-0.0777	-0.134	-2.68	-0.0243	-0.39	-0.32	-0.269	-0.122
GGGGTAC	0.0538	0.0485	0.715	1.65	0.0792	2.21	0.212	-0.0144	0.0853
ACTGTCA	-0.0157	0.0799	0.0185	-0.206	0.0322	0.0984	-0.0416	0.0158	0.0504
CAAAGCT	-0.089	-0.065	-1.4	-2.5	-0.105	-0.835	-0.135	-0.077	-0.221
TGTTAAC	0.0347	-0.00837	0.316	0.161	-0.0905	1.4	0.0476	0.0425	0.0128
GGGGCGG	0.0781	0.1	0.788	1.76	-0.0467	2.16	0.196	-0.129	0.0194
GAAGCTA	0.133	0.175	0.345	0.363	0.169	1.19	0.223	0.0868	0.102
